± gives the standard deviation. The entries are a selection whose mix differs from that of the whole data set.
Tested on: MIWI (PIWIL1) piRISC loaded with L1MC piRNA (30 nt)
Assay: pre-steady-state target cleavage rate (min^-1); MIWI and MILI are mouse PIWI proteins and EfPiwi is from a freshwater sponge; tags in brackets are library labels; higher = faster piRNA-guided slicing of the target
Settings: guide: L1MC piRNA 5'p-UAACUAAAUACUAUGCAAGCUGUAGGUCCU
Procedure, shortened: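 A transcribed, DNA-blocked target RNA library (0.1 nM) and 1 nM active affinity-purified piRISC bearing one synthetic guide were incubated in HEPES–potassium acetate buffer at 33 °C for 0–8 or 0–960 min, either with or without 500 nM GTSF1 partner protein. Uncleaved targets were sequenced, normalised to depth and to weakly complementary targets, and pooled over three trials, with k3 capped at 0.0001 min^-1. The pre-steady-state cleavage rate was derived with a burst-and-steady-state fit.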

[1] = auxiliary factor: 500 nM mouse GTSF1
[2] = auxiliary factor: none (no GTSF1)

UCCUCCUACAGCUUGGCAUAGUAUUUAGUUA
pre-steady-state target cleavage rate [1]: 0.831 ± 0.11 | pre-steady-state target cleavage rate [2]: 0.0114 ± 0.0021

UCGGCCUACAGCUUGCAUAGUAUUUAGUUA
pre-steady-state target cleavage rate [1]: 1.21 ± 0.05 | pre-steady-state target cleavage rate [2]: 0.0767 ± 0.015

UCCUGGAACAGCUGGCAUAGUAUUUAGUUA
pre-steady-state target cleavage rate [1]: 0.759 ± 0.038 | pre-steady-state target cleavage rate [2]: 0.0271 ± 0.0057

UCCACCUAGAGCUUGCAUAGUAUUUACAAA
pre-steady-state target cleavage rate [1]: 0.294 ± 0.04 | pre-steady-state target cleavage rate [2]: 0.00242 ± 0.0019

UCGACCUACAGGUUGCAUAGUAUUAAGUUA
pre-steady-state target cleavage rate [1]: 0.671 ± 0.052 | pre-steady-state target cleavage rate [2]: 0.0126 ± 0.0024

UCCACCUACAGCUUGCAUACUAUUAAGUUA
pre-steady-state target cleavage rate [1]: 0.158 ± 0.021 | pre-steady-state target cleavage rate [2]: 0.00936 ± 0.0018

UCCUGCUAGAGCUUGCAUAGUAAUUAGUUA
pre-steady-state target cleavage rate [1]: 0.521 ± 0.043 | pre-steady-state target cleavage rate [2]: 0.0215 ± 0.0048

UCCUGGAUAAGCUUGCAUAGUAUUUAGUUA
pre-steady-state target cleavage rate [1]: 1.07 ± 0.049 | pre-steady-state target cleavage rate [2]: 0.0705 ± 0.015

UCGACCCACAGCUUGCAUAGUAUUUAGUUA
pre-steady-state target cleavage rate [1]: 1.19 ± 0.044 | pre-steady-state target cleavage rate [2]: 0.0644 ± 0.011

UCCACCAUCAGCUUGCAUAGUAUUUAGAAA
pre-steady-state target cleavage rate [1]: 0.375 ± 0.037 | pre-steady-state target cleavage rate [2]: 0.00627 ± 0.002

UCCACCUACACCUUGCAUAGUAUUAAGUUA
pre-steady-state target cleavage rate [1]: 0.544 ± 0.06 | pre-steady-state target cleavage rate [2]: 0.0179 ± 0.0039

AGGACCUUGAGCUUGCAUAGUAUUUACAAA
pre-steady-state target cleavage rate [1]: 0.0854 ± 0.016 | pre-steady-state target cleavage rate [2]: 0.00462 ± 0.0018

UCCUGGAACAGCUUGCAUAGUUUAUAGUUA
pre-steady-state target cleavage rate [1]: 0.0662 ± 0.011 | pre-steady-state target cleavage rate [2]: 0.0101 ± 0.003

UCGACCUACAGCAUGCAUACUAUUUAGUUA
pre-steady-state target cleavage rate [1]: 0.421 ± 0.021 | pre-steady-state target cleavage rate [2]: 0.0197 ± 0.0036

UGGACCUACAGGUAGCAUAGUAUUUAGUUA
pre-steady-state target cleavage rate [1]: 1.08 ± 0.087 | pre-steady-state target cleavage rate [2]: 0.00737 ± 0.002

UCCUGGAACAGCUUGCAUAGUAUCUUAGUUA
pre-steady-state target cleavage rate [1]: 0.777 ± 0.046 | pre-steady-state target cleavage rate [2]: 0.0258 ± 0.0072

UCCUGGAUGUCCUUGCACAGUAUUUAGUUA
pre-steady-state target cleavage rate [1]: 0.181 ± 0.027 | pre-steady-state target cleavage rate [2]: 0.0108 ± 0.0026

UCCUGGAUCAGGUUGCAUAGUAAUUAGUUA
pre-steady-state target cleavage rate [1]: 0.113 ± 0.0098 | pre-steady-state target cleavage rate [2]: 0.00487 ± 0.0021

UGGACCUACAGCUUGCAAAGAAUUUAGUUA
pre-steady-state target cleavage rate [1]: 0.256 ± 0.017 | pre-steady-state target cleavage rate [2]: 0.0112 ± 0.0043

AGGACCAUCAGCUUGCAUAGUAUUUAGUUA
pre-steady-state target cleavage rate [1]: 1.3 ± 0.048 | pre-steady-state target cleavage rate [2]: 0.0926 ± 0.017

UCCUGGAUGUCCUUGCAUAGUAUCUAGUUA
pre-steady-state target cleavage rate [1]: 0.108 ± 0.022 | pre-steady-state target cleavage rate [2]: 0.00768 ± 0.0018

UCGACCUACAGCUUGCAUAGUAUUAAGUAA
pre-steady-state target cleavage rate [1]: 0.408 ± 0.031 | pre-steady-state target cleavage rate [2]: 0.0114 ± 0.0048

UCCUGGAUGUGAUUGCAUAGUAUUUAGUUA
pre-steady-state target cleavage rate [1]: 0.0432 ± 0.0065 | pre-steady-state target cleavage rate [2]: 0.00496 ± 0.002

UCCUCGUACAGGUUGCAUAGUAUUUAGUUA
pre-steady-state target cleavage rate [1]: 1.2 ± 0.043 | pre-steady-state target cleavage rate [2]: 0.0358 ± 0.0068

AGGACCUAGACCUUGCAUAGUAUUUAGUUA
pre-steady-state target cleavage rate [1]: 1.01 ± 0.047 | pre-steady-state target cleavage rate [2]: 0.0632 ± 0.013

UCCUGCUACAGGUAGCAUAGUAUUUAGUUA
pre-steady-state target cleavage rate [1]: 1.27 ± 0.14 | pre-steady-state target cleavage rate [2]: 0.00376 ± 0.0023

UCGACCAACAGCUUGCAUAGUAUUUACAAA
pre-steady-state target cleavage rate [1]: 0.491 ± 0.041 | pre-steady-state target cleavage rate [2]: 0.00589 ± 0.0029

UCCUGGAUGAGCUUGCUUAGUAUAUAGUUA
pre-steady-state target cleavage rate [1]: 0.0747 ± 0.013 | pre-steady-state target cleavage rate [2]: 0.0101 ± 0.0035

UCCUGCUAGUCCUUGCAUAGUAUUUAGUUA
pre-steady-state target cleavage rate [1]: 0.273 ± 0.023 | pre-steady-state target cleavage rate [2]: 0.0153 ± 0.003

UCCUGCUACAGCAUGCAUAGAAUUUAGUUA
pre-steady-state target cleavage rate [1]: 0.351 ± 0.047 | pre-steady-state target cleavage rate [2]: 0.009 ± 0.0029

UCCUCCUACAGCUUGCAUAGUAAUUUAGUUA
pre-steady-state target cleavage rate [1]: 0.167 ± 0.02 | pre-steady-state target cleavage rate [2]: 0.00932 ± 0.0027

UCCUGGAACAGCUUGCAUAGAAUUUAGAUA
pre-steady-state target cleavage rate [1]: 0.245 ± 0.048 | pre-steady-state target cleavage rate [2]: 0.00865 ± 0.0035

UCCUGGUACAGCUUGCAUAAUAUUUAGUUA
pre-steady-state target cleavage rate [1]: 0.455 ± 0.076 | pre-steady-state target cleavage rate [2]: 0.0236 ± 0.0056

UCCUGGAUGUGCUUGCAAAGUUUUUAGUUA
pre-steady-state target cleavage rate [1]: 0.00751 ± 0.0037 | pre-steady-state target cleavage rate [2]: 0.00575 ± 0.002

UCCUCCUACAGCUUGCAUGGUAUUUAGUUA
pre-steady-state target cleavage rate [1]: 1.66 ± 0.078 | pre-steady-state target cleavage rate [2]: 0.0582 ± 0.011

UCCUGCUACUGCUUGCUUAGUAUUUAGUUA
pre-steady-state target cleavage rate [1]: 0.49 ± 0.039 | pre-steady-state target cleavage rate [2]: 0.0208 ± 0.003

UCCUGCUUGUGCUUGCAUAGUAUUUACAAA
pre-steady-state target cleavage rate [1]: 0.0637 ± 0.014 | pre-steady-state target cleavage rate [2]: 0.00366 ± 0.0024

UCGACCUACAGCUUGCAUAGUAUAUACUUA
pre-steady-state target cleavage rate [1]: 0.192 ± 0.029 | pre-steady-state target cleavage rate [2]: 0.00686 ± 0.0024

UCCUGGAUGAGCUUGCAUAGUAUUAAGUAA
pre-steady-state target cleavage rate [1]: 0.197 ± 0.036 | pre-steady-state target cleavage rate [2]: 0.0178 ± 0.0055

UCCUGGAUGUGCUUGCAUAGUAAUUAGAUA
pre-steady-state target cleavage rate [1]: 0.0139 ± 0.0055 | pre-steady-state target cleavage rate [2]: 0.00409 ± 0.0025

UCCUGGUACAGCUAGCAUAGUAUAUAGUUA
pre-steady-state target cleavage rate [1]: 0.357 ± 0.048 | pre-steady-state target cleavage rate [2]: 0.00724 ± 0.0035

UCCUGGUAUAGCUUGCAUAGUAUUUAGUUA
pre-steady-state target cleavage rate [1]: 1.02 ± 0.043 | pre-steady-state target cleavage rate [2]: 0.0597 ± 0.012

UCCUGGUACAGCUUGGAUAGUAUUUAGAUA
pre-steady-state target cleavage rate [1]: 0.165 ± 0.04 | pre-steady-state target cleavage rate [2]: 0.00847 ± 0.0027

UCCUCCUACAGCUUGCAUCGUAUUUAGUUA
pre-steady-state target cleavage rate [1]: 0.546 ± 0.02 | pre-steady-state target cleavage rate [2]: 0.0308 ± 0.0057

UCCUCCUACAGCUUGCAUAGUAUUUCGUUA
pre-steady-state target cleavage rate [1]: 0.503 ± 0.044 | pre-steady-state target cleavage rate [2]: 0.04 ± 0.0087

UCCUGCUUCAGCUUGCAUAGUAUAUAGUUA
pre-steady-state target cleavage rate [1]: 0.699 ± 0.047 | pre-steady-state target cleavage rate [2]: 0.0228 ± 0.006

UCCUGGAUCAGCUUGCAUAGAAUUUAGAAA
pre-steady-state target cleavage rate [1]: 0.148 ± 0.028 | pre-steady-state target cleavage rate [2]: 0.00575 ± 0.0031

UGGACCUACAGCUUGCAAAGUAUUUAGAAA
pre-steady-state target cleavage rate [1]: 0.299 ± 0.028 | pre-steady-state target cleavage rate [2]: 0.00675 ± 0.0025

UGGACCUACAGCUUGGUUAGUAUUUAGUAA
pre-steady-state target cleavage rate [1]: 0.821 ± 0.095 | pre-steady-state target cleavage rate [2]: 0.00537 ± 0.0023

AGGACCUACACGUUGCAUAGUAUUUAGUUA
pre-steady-state target cleavage rate [1]: 1.11 ± 0.043 | pre-steady-state target cleavage rate [2]: 0.0422 ± 0.0075

UCCUCCUACAGCUUGGAUAGUAUUUAGUAA
pre-steady-state target cleavage rate [1]: 0.707 ± 0.045 | pre-steady-state target cleavage rate [2]: 0.0186 ± 0.0033

UCCUCCUACAGCUUGCAUAGUAUUUAGUUG [g2:g26:cont:t1G]
pre-steady-state target cleavage rate [1]: 0.245 ± 0.023 | pre-steady-state target cleavage rate [2]: 0.0275 ± 0.0047

UCCUGGAUCAGCUUGCAUAGUAUUUACUUA
pre-steady-state target cleavage rate [1]: 0.224 ± 0.015 | pre-steady-state target cleavage rate [2]: 0.0269 ± 0.0071

UCCUGGUACAGGAUGCAUAGUAUUUAGUUA
pre-steady-state target cleavage rate [1]: 0.418 ± 0.044 | pre-steady-state target cleavage rate [2]: 0.00284 ± 0.002

AGGACCUACAGCUUGCAUAGUUUUUAGAAA
pre-steady-state target cleavage rate [1]: 0.251 ± 0.035 | pre-steady-state target cleavage rate [2]: 0.00908 ± 0.0034

UCCUGGAUCAGCUUGCUUAGUAUUUUGUUA
pre-steady-state target cleavage rate [1]: 0.578 ± 0.049 | pre-steady-state target cleavage rate [2]: 0.0112 ± 0.0038

UCCUGGAUGUGCUAGCAUAGUAUUUAGUUA
pre-steady-state target cleavage rate [1]: 0.127 ± 0.013 | pre-steady-state target cleavage rate [2]: 0.00825 ± 0.0028

UCCUGGUACAGCUUGCAUAGUAUUUAGUUC [g2:g24:cont:t1C]
pre-steady-state target cleavage rate [1]: 0.873 ± 0.047 | pre-steady-state target cleavage rate [2]: 0.0637 ± 0.014

UCCUGGAUGUGCUUGUAUAGUAUUUAGUUA
pre-steady-state target cleavage rate [1]: 0.389 ± 0.026 | pre-steady-state target cleavage rate [2]: 0.0355 ± 0.0076

UCCACCUUCAGCUUGCAUAGUAUUAAGUUA
pre-steady-state target cleavage rate [1]: 0.388 ± 0.037 | pre-steady-state target cleavage rate [2]: 0.0141 ± 0.0028

— the supplement of paper PMC10338343
